The other results are listed elsewhere or left out. The main result of the screen is listed elsewhere. These columns were measured beside it and carry no call.

Common to all, as to assay: Primary Screen for Target Class Profiling of Small Molecule Inhibitors of Methyltransferases
Experiment [1] has as its target Glycine N-methyltransferase (Homo sapiens) (UniProt Q14749). The following applies: purified enzyme, MTase-Glo SAH luminescence; measured here: GNMT inhibition; at 40 µM; stronger effect = lower value. An outline of the steps:
(§1)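 Each enzyme was reacted with SAM and its substrate, with compounds tested once at 40 uM; SAH formed was read by MTase-Glo luminescence.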

Experiment [2] addresses Guanidinoacetate N-methyltransferase (Homo sapiens) (UniProt Q14353). The settings on record: purified enzyme, MTase-Glo SAH luminescence; measured here: GAMT inhibition; at 40 µM; stronger effect = lower value. An outline of the steps:
as §1

In experiment [3] the target is Histamine N-methyltransferase (Homo sapiens) (UniProt P50135). The settings on record: purified enzyme, MTase-Glo SAH luminescence; measured here: HNMT inhibition; at 40 µM; stronger effect = lower value. The gist of the method:
as §1

For experiment [4], the target named is Nicotinamide N-methyltransferase (Homo sapiens) (UniProt P40261). The following applies: purified enzyme, MTase-Glo SAH luminescence; measured here: NNMT inhibition; at 40 µM; stronger effect = lower value. An outline of the steps:
as §1

Experiment [5] deals with Phenylethanolamine N-methyltransferase (Homo sapiens) (UniProt P11086). The following applies: purified enzyme, MTase-Glo SAH luminescence; measured here: PNMT inhibition; at 40 µM; stronger effect = lower value. An outline of the steps: as §1
% is scaled to controls: 0 for no effect and ±100 for the full control effect.

On to `Cc1cc2c(cc3n2CC(C)(C(=O)NC2CCCCC2)N(Cc2ccccc2F)C3=O)o1` (stereo not given), for which the activity change, negative = inhibition in experiment [1] is 2.67%; in experiment [2], 0%; in experiment [3] it was 6.17%; in experiment [4] it was -3.46%; in experiment [5], -0.676%.
Consider `O=C(Cn1ccc2cc(S(=O)(=O)N3CCCC3)ccc21)NCc1cccc(Cl)c1`, for which the activity change, negative = inhibition was -3.85% in experiment [1]; 2.42% in experiment [2]; -4.69% in experiment [3]; -13.9% in experiment [4]; -7.51% in experiment [5].
The matching figures for `O=C(NC1C[C@H]2CC[C@@H](C1)N2S(=O)(=O)c1cccs1)c1ccncc1` (stereo not given in full): -7.59%, 1.94%, -1.98%, -5.45% and -1.93%.
For `CCCOc1ccc(CN2C(=O)c3cc4sccc4n3CC2(C)C(=O)NC2CCCC2)cc1` (stereo not given) the same measures were -4.22%, 2.98%, 1.44%, -1.92% and -3.44%.
Turning to `O=C(NCCc1ccccc1)c1ccc2c(=O)nc3c(-c4cccc(F)c4)n[nH]n3c2c1`, the activity change, negative = inhibition in experiment [1] is 2.72%; in experiment [2], 3.89%; in experiment [3], 3.08%; in experiment [4] it was 2.23%; in experiment [5], -1.78%.
For `CCCC1c2ccc(C)n2CCN1C(=O)Nc1ccc(C)cc1C` (stereo not given) the same measures were -1.08%, 2.56%, -1.38%, -1.76% and -2.35%.
The matching figures for `COc1ccc2c(c1)CC(NS(=O)(=O)c1cc(Cl)ccc1OC)CO2` (stereo not given): -4.12%, 2.1%, 6.84%, -0.024% and 2.77%.
`CC(C)NC(=O)CCc1cc2n(n1)CCN(C(=O)[C@H]1CCCO1)C2`: the activity change, negative = inhibition is 0.426% in experiment [1]; -0.432% in experiment [2]; -0.116% in experiment [3]; -0.069% in experiment [4]; 0.194% in experiment [5].
As to `C[C@H](CCC(=O)O)[C@H]1CC[C@H]2[C@@H]3C[C@H](O)[C@@H]4C[C@H](O)CC[C@]4(C)[C@H]3CC[C@]12C`, the activity change, negative = inhibition in experiment [1] is -10.3%; in experiment [2] it was -8.95%; in experiment [3] it was 7.33%; in experiment [4], -24%; in experiment [5], -1.48%.
The matching figures for `COc1ccccc1CNC(=O)C1(C)Cn2c(cc3ccccc32)C(=O)N1C1CCN(Cc2ccccc2)CC1` (stereo not given): -2.53%, 3%, -3.7%, 0.382% and -1.71%.
Regarding `O=C(CCc1nnc2n(Cc3ccc(Cl)cc3)c(=O)c3ccccc3n12)NCc1cccnc1`, the activity change, negative = inhibition in experiment [1] is -4.07%; in experiment [2], 2.85%; in experiment [3] it was 2.68%; in experiment [4] it was 7.5%; in experiment [5], -1.61%.
On to `CCCn1c(=O)c2ccccc2n2c(SCc3ccc(F)cc3Cl)nnc12`, for which the activity change, negative = inhibition in experiment [1] was -14.3%; in experiment [2], 0%; in experiment [3], -7.9%; in experiment [4] it was -15.9%; in experiment [5], 2.67%.
In the case of `COC(=O)c1ccc([C@H]2Nc3ccc(S(=O)(=O)Nc4cccc(C)c4)cc3[C@H]3C=CC[C@H]32)cc1`, the activity change, negative = inhibition in experiment [1] was -12.6%; in experiment [2], 0%; in experiment [3], -17.7%; in experiment [4], -14.8%; in experiment [5], -17.4%.
The matching figures for `O=C1CN(Cc2ccc(-c3ccccc3)cc2)CCN1c1ccc(Cl)nn1`: -9.04%, -7.09%, -2.67%, -8.6% and -7.99%.
As for `Cc1cccc(N2C(=O)c3cc4ccccc4n3CC2(C)C(=O)NCCC(C)C)c1C` (stereo not given), the activity change, negative = inhibition was 3.38% in experiment [1]; 2.39% in experiment [2]; 5.4% in experiment [3]; 5.24% in experiment [4]; -0.233% in experiment [5].
Regarding `Cc1cc(N2CCC3(CCCN(C)C3=O)C2)c2ccccc2n1` (stereo not given), the activity change, negative = inhibition in experiment [1] was -6.3%; in experiment [2], -9.19%; in experiment [3], -43.6%; in experiment [4], -16.8%; in experiment [5] it was -11.8%.
With `COc1ccc(CCN2C(=O)c3cc4sccc4n3CC2(C)C(=O)NC2CCCCC2)cc1OC` (stereo not given), the activity change, negative = inhibition in experiment [1] is -0.874%; in experiment [2] it was 0%; in experiment [3], 5.37%; in experiment [4], -15%; in experiment [5], 2.29%.
Consider `CCCCN1C(=O)c2cc(C(=O)Nc3ccc(C)cc3C)nn2CC1(C)C(=O)NC1CCCC1` (stereo not given), for which the activity change, negative = inhibition was 7.2% in experiment [1]; 3.19% in experiment [2]; -7.78% in experiment [3]; 6.95% in experiment [4]; 5.87% in experiment [5].
The matching figures for `C=CCNC(=O)c1cn2c(n1)CN(C(C)=O)CC2`: 0.5%, 2.49%, 2.38%, -8.03% and 14.1%.
For `COc1ccccc1CNC(=O)C1(C)Cn2c(cc3ccccc32)C(=O)N1Cc1cccc(C)c1` (stereo not given), the activity change, negative = inhibition in experiment [1] was 5.07%; in experiment [2] it was 1.71%; in experiment [3], 8.1%; in experiment [4], 7.03%; in experiment [5], -0.46%.
For `COc1ccc(OC)c(CCN2C(=O)c3cc4sccc4n3CC2(C)C(=O)NC2CCCCC2)c1` (stereo not given), the activity change, negative = inhibition in experiment [1] is -2.17%; in experiment [2], 0%; in experiment [3], 0.609%; in experiment [4], 0.489%; in experiment [5], -1.81%.
For `O=C(NCc1nnc2n1CCCC2)[C@H]1CNC[C@H](C(=O)N2CCOCC2)C1` the same measures were -1.71%, -1.46%, 0.394%, -3.49% and -0.465%.
For `CCCN1C(=O)c2cc(C(=O)NCCc3ccccc3)nn2CC1(C)C(=O)NC1CCCC1` (stereo not given) the same measures were 5.31%, 0%, -15.1%, 1.81% and 2.7%.
On to `Cc1cccc(NC(=O)N2CCn3nnc(CCC(=O)NC4CC4)c3C2)c1`, for which the activity change, negative = inhibition in experiment [1] is -2.05%; in experiment [2] it was -12.2%; in experiment [3], -4.7%; in experiment [4], -4.31%; in experiment [5], -2.72%.
For `CC1CCN(S(=O)(=O)c2ccc3c(c2)oc(=O)n3CC(=O)N2CCN(Cc3ccccc3)CC2)CC1`, the activity change, negative = inhibition was -8.35% in experiment [1]; 3.26% in experiment [2]; -2.63% in experiment [3]; -0.361% in experiment [4]; -4.8% in experiment [5].
Consider `COC(=O)C1(C)CCC2(C(=O)O)CCC3(C)C(=CCC4C5(C)CC(O)C(OC6OCC(O)C(O)C6O)C(C)(CO)C5CCC43C)C2C1` (stereo not given), for which the activity change, negative = inhibition in experiment [1] is 1.46%; in experiment [2], -1.45%; in experiment [3], 7.31%; in experiment [4], -13.1%; in experiment [5], -3.13%.
As to `COc1ccccc1-c1nc2nccc(-c3cccnc3)n2n1`, the activity change, negative = inhibition in experiment [1] is -12.4%; in experiment [2], -7.74%; in experiment [3], -4.92%; in experiment [4], -17.3%; in experiment [5] it was -9.2%.
In the case of `CC1(C(=O)NC2CCCC2)Cn2c(cc3ccccc32)C(=O)N1Cc1ccccn1` (stereo not given), the activity change, negative = inhibition in experiment [1] was found to be 3.64%; in experiment [2], 1.66%; in experiment [3] it was 6.35%; in experiment [4], 3.61%; in experiment [5], 0.101%.
Turning to `CN1CCc2cc3c(cc2C(=O)Cc2cc4c(cc2C1)OCO4)OCO3`, the activity change, negative = inhibition in experiment [1] was 3.9%; in experiment [2], 6.24%; in experiment [3], 7.82%; in experiment [4], -7.16%; in experiment [5], 6.99%.

The record behind these values is PubChem BioAssay AID1745853 (National Center for Advancing Translational Sciences (NCATS), 2022).
